# Reference: paper PMC10726135
# This is one part of the list. At the low end of the ranking the order means little. Measured with an extract: partners may take part in the binding.
# Molecular target: T1, HNF4alpha2 (COS-7 nuclear extract) (UniProt P41235)
# T1 sequence: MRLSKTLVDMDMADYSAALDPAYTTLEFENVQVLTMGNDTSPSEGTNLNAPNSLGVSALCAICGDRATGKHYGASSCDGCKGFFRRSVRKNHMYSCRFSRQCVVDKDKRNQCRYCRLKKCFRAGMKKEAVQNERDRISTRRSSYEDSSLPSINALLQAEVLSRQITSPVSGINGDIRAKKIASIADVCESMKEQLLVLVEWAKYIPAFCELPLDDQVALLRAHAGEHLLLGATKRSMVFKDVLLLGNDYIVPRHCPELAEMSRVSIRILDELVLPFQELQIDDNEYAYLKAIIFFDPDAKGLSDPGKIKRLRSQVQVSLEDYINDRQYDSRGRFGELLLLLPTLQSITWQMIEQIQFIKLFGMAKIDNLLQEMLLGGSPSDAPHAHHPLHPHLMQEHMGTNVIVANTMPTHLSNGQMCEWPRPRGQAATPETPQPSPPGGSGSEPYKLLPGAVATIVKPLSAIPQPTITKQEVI
# Experiment: protein-binding microarray
# Conditions: COS-7 nuclear extract on double-stranded Agilent 4x180k PBM; binding buffer, salt, pH and temperature not given; high values mean tight binding; double strand, one strand shown; sequences stand for … in …GCCTAGGGAGATTAGAGTATCGGTCGA
row,Sequence,binding signal (log2 normalized intensity)
1,GCTCTGATACTTTCTGTATCTAATCTCAGA,-0.452
2,TCTAAACCTAGCAGCCTGCCACCCAACCTG,-1.14
3,TGACAAGCAGCCTCAGTGGCTCACAAATGG,-1.15
4,GTAAAGCCACTGCCTAGATAAAAGGGTCTT,-1.14
5,CAAACAGCTTAGGGTTCAAACTCCAGCTCT,3.29
6,GATTCACAGCAGGCTCACAAGATTGCATTC,-1.15
7,AACACTGGATAAAGTCCATATTCTTTGTTT,2.04
8,CTCGGAGACACACTCAGGCACTGGGATCCA,-1.11
9,GAGTAAGCAATCAGATATCCATTTATCTCA,-1.06
10,GTCATTGGTATCCACAGAGTTCATAATTTT,0.879
11,AAAGTGTCAAGTAGAGACCTGTCTTCCTGG,0.537
12,ATTTGGACTTTTACTCTTAGAGATAATGGG,2.13
13,AGTACAGGGCGTCCTTGATAAGCAAGATGA,-1.17
14,TGGACACACGAATAATGGAGCTGATGTCCT,1.34
15,ACAAGTGTACAAAGGTCACTTCTGTTCATT,5.87
16,TAGCACTTTGGACCTCCACTTTGGAGGGGG,1.7
17,AGCCACTCATTCTTGGAATGCATTGCAAGT,0.284
18,GCAGAAGAATGGATGAGCTAATCAGAGCAT,-1.16
19,TTCTCATCCGCTAATGACACCAGGGAACAC,0.493
20,TGAATTCTGCAGCAGATGGCCAGCCTTTGG,-0.936
21,CACTGGCTGCTGCTCAGGAGACCGAGCAGC,-1.02
22,TGAGCAGGCAGTGTCACAGAAATCATGTAG,0.722
23,CAACCCTCCTCCCTTTGGCCATGAAAGTAT,2.04
24,ATCAGAGCTGGAGGAGACCTTTGGATATCA,2.97
25,AGATATGAGGCCAGTTTTCCCAAAGGAGCT,-1.07

row,Sequence,binding signal (log2 normalized intensity)
1,CCTCTGAGGTGTTAACCTGATGCTGAAGTC,0.962
2,GCCCTGTTTAGGAGGAAATAGAGAGCAGAC,-0.746
3,GAAAGATAAAAGGCCATAGGGAAAGATAAA,-1.13
4,ATGAGATACCCATTCACATGACCTTTGTCC,8.34
5,TCAAGGGGAAGAAATCTAAGATTTATAAAG,-1.06
6,CACTTAGCACAAGTGACTATTCTGGTTTGC,0.921
7,CAGCAGCAGGCAGGGACTTTGGCCCACGGT,2.6
8,GCAGCGGGTCAATTAGCTTGAGCGAGACAG,-1.05
9,GGTTCAAAGGTCATTTCTGCTTGCAACCAA,5.52
10,GCATTGAAAGCACTAATTAACTGAGCCTCA,-1.13
11,GTGACTGAGCAGAGATTTGACCTAAGTCTG,0.817
12,CCATGAGCTGGCCTCACTAAGTCCTGCTTA,-1.15
13,TGGTAAATAAAGGAACTTACGAAGATAAAT,-1.13
14,CCTTTGTACCAAAATCACACTGGGAATTGG,-0.799
15,GTGTGCGTTTCCCAGATATCTCTGGTAAAC,-1.15
16,CTTGCTTTCTGCCCAGGGAGGTGCCTGTGC,1.04
17,AGGCTTTGAGTCAACACACCTGTGGGTAAT,0.341
18,CTAACAAAGCTCAGGGCAAAGACTCAAATC,-1.03
19,GGTAGATAAGGGAGTTTCAGAGGACTGCCC,-1.12
20,CAGCTTTGACGCCACCTGAAGGCAGGTGTG,-1.05
21,ACCTATTCTCTCTGAGGGCTACTATCTGAA,-1.21
22,CACTCCTCCTCCTTCCCTCCTGCTCACTTA,1.33
23,AATGCACTGGTGACTTTAAGTTGACTCCAA,-1.16
24,CCTCAGTGGCTCACAAATGGAGTTTGGTTT,2.31
25,ATACCAGAAATTCCATGATTTTCTGGAGGA,-1.13

row,Sequence,binding signal (log2 normalized intensity)
1,TACATACCCAAGTTCCCTCTCAGGAATGTG,0.152
2,TGAACCAATCTTGAGATAAGTACACAAAAG,-0.858
3,GGAATGTGCTTGGACCTGCTCTGTTTTCTT,1.55
4,AATAAATGTGTTTCATCAGTCCAATTCACA,0.947
5,CAACTCTAAGGGGGAAAGTCCACGTGAGAG,2.69
6,TGAGTGGAATATGAGGTCAGGGTTCATCTG,3.43
7,CTTGTGTAATCCTGCAACAGCCCCATGAGA,2.19
8,GATATTTCCCCTTTGACTTAGGATCAGTAG,1.64
9,ATCAAATTAACACAGCTCTAGAGGGCTGCT,-1.13
10,ATATCCCTGAGAGGCCAGTTTGACCTTTGC,8.38
11,GGATAAAAGGGGAAAAGGTCAAATACCAAA,1.79
12,GCAAAGCTGCTATGAGCTATGATTGCGCCA,-1.08
13,TGAGGAGCCAAGTTTTGCAACATACTGAAA,-0.75
14,CTTATCACATTCTGCTCTTGAACCAGAGAA,-0.621
15,CAGTCCCTATAGCCTCACTTGCTGATAAGG,-0.63
16,TGTGTGCTGCGCGGGGCCTCCCAGTGGTAT,0.376
17,GAGCCTGGACATTTGCCACCAATGCCTCTA,-1.14
18,TACCGGCAGAGGCTGCAGAGGTTTCGCAAG,-1.13
19,AACATAATATTTAGCTTTCAGTGACTGCTC,-1.03
20,TGTCCAGCACACCTTTTTTTCATGCAAATT,0.631
21,TTTCTGCCTGTGATGTCCTTCCCTCAGCAA,-0.881
22,TAGTTGACCTTTGAGAACCTCCCATCAGCT,3.12
23,AACCCAGGGTCACAAGGATCCCATTCATGT,-0.884
24,GACTGACTTAACCCTTGCCTGGCATGGCCT,-0.487
25,TGTTACCACCCAGACCAGTAACCTAAGTCA,-1.08

row,Sequence,binding signal (log2 normalized intensity)
1,CAAAGTCCTGGAAGAAACCCATTTGTTAGT,1.24
2,CAGGGAGCCCTTATATCCACATGGGTCCAA,2.29
3,CGGGCAGCCTGTGGCCAGGCTGCGTTTCAA,-0.657
4,TCCTTGACTTCAAAGGCATTTCTGGACTTG,2.89
5,ACAGGTGCTCTTTATCAGCACCAAGAACAA,-1.12
6,ATCATTGCCTCTGGTATGCAGAAAAGCAAG,-0.771
7,GCTGACCTTTGGTCTAAACCTACTTAGATC,4.25
8,TCACAAGCATGGGCCTCCTCTTCTTTGGGC,0.308
9,CTTCAAGATGGCATCACTCTTGCCACAGAA,-1.08
10,ATTGTTTACTGGTGAACATAAATCGCAAAT,-1.03
11,TGAGACACGTGTGCCATGCCAAAGAAGCAA,-1.07
12,ATCTCGGGGCTGGCATGTCTCTGGTCAGGG,1.16
13,AACACGGGCGAAAAAGACGCGGTCTCAGTT,-1.18
14,GCGAAGCCGGCGGCGGAATGCTTGTCTAGT,-1.31
15,CAAGTGACTGATAAGGCTAAGTGGAGGATT,-1.11
16,AGAATGCAGAAACAAATACAGACACACCTA,-1.27
17,AGGGAAATGCAAACATTTCTGGAATGTCCA,0.0104
18,AGAGAAGATTCCAGAGGGAGGGAGGGTGGA,-1.21
19,TATCTTACCTCCTTCTCCCCCATGCCCCTG,5.28
20,ACCTGGAACTGAAAGAGACCTTTGACATCA,4.5
21,CATCTGATAGCTAAACCAGATACGTGGGTC,0.854
22,ATCTATTTTCTATTTCCACTGAGGTCAAGA,2.09
23,TGTGGTTAAGACTCAAAGTTCAGTCGAATT,2.16
24,TCTTAGAGGCACCCATCCCTTTGCAATAAA,1.62
25,TCTCCTAACTATGGTCACGCGGCCAAAATG,-1.21

row,Sequence,binding signal (log2 normalized intensity)
1,CAAAAATATCTTTGTCTCAGGAACTTTGTT,1.85
2,ATGCCAGCTAAGATCAGTAGCTAGGAGACA,-1.17
3,CATTGCAAATTGGATGTTGAACCTCTGTCC,3.15
4,GGAGGGGAAGCTGGGCAGGCGCCGACTGCC,-1.15
5,AAAACATTGTACCTTCTACCGTACCTAGGA,-0.718
6,GGGGGTCAGAAGTCCAACATTAGTATCACT,3.82
7,GTCCATCACCTGGCTCTGAAAAACAAAATG,-0.612
8,TTGTCTTTTCGGAAGAACTGGTTCTGTGGA,1.81
9,GTCTTTGCCCCTGGACTTTGAATTTCCCCA,4.54
10,AACTAGGGTTCCAAGACCAAGCAAGCCAGT,-1.15
11,TTACCATATTTACTTATGGTTTGACCCTGC,4.65
12,AGATGTTATTACTTAATGCTTTGAATCCTT,0.398
13,ACTTGGGTTTATGGCTTATGCATGTTTATG,2.18
14,CCCCAAATTCCTTTCAAACTGTATTGCTCA,1.07
15,AGATAGGTTAAAATTTATCTATTGGGTACA,1.42
16,CTGTCTTCATCCTGAGAGGGCTCAAGGTCT,1.49
17,CTGGAATGTCACAGGGATTACGATCCTGCC,-0.996
18,CCTTCACAAATTAGACAAGGTTTGTAACAA,1.01
19,CCCCAATCAGGTTTCTCAAGTGATCGAAGG,1.59
20,TGAGCAAGATAATGACTAAGGCAGGGAAGG,-1.08
21,CGATGGGCTGGCCCTGAGCCAAGGGAGCAC,-1.19
22,ATGTAAATAAGAGCTTTGCATAAGCCAGAC,-1.23
23,CTGGGAAGATTAAGGAAGGAAGGTGCTTAT,-0.85
24,ACCTTTGTTCACAGTGACGTTCTGCCCCTT,4.02
25,GACCTCAGCCCTCAGGGGCCTTCAGATAAA,-0.808

row,Sequence,binding signal (log2 normalized intensity)
1,GAAGCTTTCTGAGAAACTTCTTTGTGATGT,0.632
2,GTCCGCCCTTCCCCGCTCTCCCCGCCCCCT,6.53
3,CTGACCTACCTGACCTGGCATACTACAGAA,-1.1
4,ATCACTCCTGGTTGGCAAACAAAAAGCTCT,-1.15
5,GGCAGCAAGTATTCAAGAAAGGGGCAAAGT,2.14
6,TGGGAATTGGGATGGCAGCTTCATTCCAGC,-1.11
7,GTCAGTGAACTGTGGTTGACAGGCAACAAT,0.656
8,CCGCCACCCCCCAGAGGGCCATCTAGCTTA,2.7
9,CGAATGGTCGCGCCGGGCGCCGCTCTGAGT,-1.12
10,CAGGGATAGCGCCCACACTGCCCATCCCCA,2.22
11,GCTGGAGGTGTTAAAGTGCCATTGAGATGG,0.489
12,TGCAGTACTTTTCAGGAACTGTTCTTTGAC,1.18
13,TCATGGCTTAAAACGACTGATTCTCAGGCA,-1.04
14,GAGGATGAGGACTTTGGTCTTATTACTAAG,2.86
15,AGCTCAGTGGAAATTGTCCTGCGGTTGGCT,-0.78
16,TATCTCTCCCCCACCACTGCTTCCTGCCCC,5.62
17,GCCAGAAAAGCAAACCGAGATCAAGGGACA,-1.1
18,CTTACAGGACAAAAGTAAATATGGTTTACC,0.322
19,GGACAGCTGGCCTCATGCCTTATCTACATA,-0.765
20,AATCTTCCTTCTTACAGCTGGCTCACTATT,1.19
